Consider one molecule from article PMC4624954, “Delineating the Tes Interaction Site in Zyxin and Studying Cellular Effects of Its Disruption” (PLoS ONE, 2015).

What all share (test): ectopic recruitment to mitochondria; Vero cells transiently co-transfected with a zyxin-mito variant (held on the surface of mitochondria by the ActA membrane anchor) and a GFP-Tes variant; fixed cells, immunofluorescence (anti-zyxin or anti-myc) and GFP signal
For one assay, the target named is T1, Zyx FL WT-mito (human) (UniProt Q15942).
T1 sequence: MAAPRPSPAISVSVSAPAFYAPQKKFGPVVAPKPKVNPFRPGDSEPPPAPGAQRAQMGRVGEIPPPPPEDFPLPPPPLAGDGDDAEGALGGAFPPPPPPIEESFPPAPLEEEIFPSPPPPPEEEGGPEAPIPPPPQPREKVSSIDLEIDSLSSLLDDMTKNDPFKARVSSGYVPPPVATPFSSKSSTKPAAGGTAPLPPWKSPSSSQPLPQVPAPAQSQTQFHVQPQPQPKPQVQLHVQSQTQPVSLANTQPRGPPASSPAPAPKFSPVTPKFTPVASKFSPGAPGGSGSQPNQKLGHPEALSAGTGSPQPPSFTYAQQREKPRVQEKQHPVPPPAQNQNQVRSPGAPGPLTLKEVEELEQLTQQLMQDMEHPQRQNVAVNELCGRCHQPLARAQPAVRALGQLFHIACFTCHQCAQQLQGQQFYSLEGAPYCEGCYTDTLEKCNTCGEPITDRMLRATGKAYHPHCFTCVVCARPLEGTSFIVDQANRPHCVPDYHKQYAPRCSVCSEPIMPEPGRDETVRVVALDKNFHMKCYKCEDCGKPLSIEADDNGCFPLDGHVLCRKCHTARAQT

Assay [1] concerns the target T2, Zyx 51-63-myc-mito (human) (UniProt Q15942).
T2 sequence: GAQRAQMGRVGEI

For assay [2], the target named is T3, Zyx 64-77-myc-mito (human) (UniProt Q15942).
T3 sequence: PPPPPEDFPLPPPP

Assay [3] has as its target T4, Zyx 51–63 MT-myc-mito (human) (UniProt Q15942).
T4 sequence: GAQRAQMGRAAAA

The target in assay [4] is T5, Zyx 140-380-myc-mito (human) (UniProt Q15942).
T5 sequence: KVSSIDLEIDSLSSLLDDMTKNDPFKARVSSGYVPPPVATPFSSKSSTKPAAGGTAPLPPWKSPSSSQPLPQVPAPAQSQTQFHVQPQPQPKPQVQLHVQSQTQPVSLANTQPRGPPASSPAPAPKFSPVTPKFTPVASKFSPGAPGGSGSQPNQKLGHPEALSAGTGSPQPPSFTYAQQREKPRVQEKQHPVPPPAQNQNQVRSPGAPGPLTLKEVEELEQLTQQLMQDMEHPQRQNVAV

For the next assay, the target named is T6, Zyx FL MT-mito (human) (UniProt Q15942).
T6 sequence: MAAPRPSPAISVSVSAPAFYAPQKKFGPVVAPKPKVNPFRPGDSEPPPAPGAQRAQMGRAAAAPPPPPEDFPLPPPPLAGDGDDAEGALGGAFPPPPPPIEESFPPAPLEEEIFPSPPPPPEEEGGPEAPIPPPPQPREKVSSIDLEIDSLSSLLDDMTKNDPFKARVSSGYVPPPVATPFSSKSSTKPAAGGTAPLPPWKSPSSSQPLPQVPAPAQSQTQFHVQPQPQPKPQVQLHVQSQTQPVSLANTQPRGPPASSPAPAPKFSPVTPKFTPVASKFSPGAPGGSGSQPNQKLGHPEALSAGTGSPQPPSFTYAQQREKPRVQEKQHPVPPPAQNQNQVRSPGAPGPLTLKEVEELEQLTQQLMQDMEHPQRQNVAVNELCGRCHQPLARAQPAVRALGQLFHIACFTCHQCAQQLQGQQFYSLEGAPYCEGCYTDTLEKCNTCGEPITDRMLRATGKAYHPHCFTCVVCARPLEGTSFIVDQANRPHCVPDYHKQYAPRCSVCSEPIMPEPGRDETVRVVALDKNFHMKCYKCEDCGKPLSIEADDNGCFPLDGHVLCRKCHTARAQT

For assay [5], the target named is T7, Zyx 51-140-myc-mito (human) (UniProt Q15942).
T7 sequence: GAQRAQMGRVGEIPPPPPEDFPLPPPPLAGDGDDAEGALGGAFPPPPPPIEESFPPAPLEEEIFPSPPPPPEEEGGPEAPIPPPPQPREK

Assay [6] addresses T8, Zyx 51-77-myc-mito (human) (UniProt Q15942).
T8 sequence: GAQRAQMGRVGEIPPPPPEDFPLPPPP

Results are given in words; binding and its absence hold for the method and conditions named. Some entries that bind do so weakly or less than the wild type. Tags and fused reporters may be left off the sequences shown.

B1: GFP-Tes LIM1 (domain or fragment, UniProt Q9UGI8 234-299)
chain: YSCYCCKLSMKEGDPAIYAERAGYDKLWHPACFVCSTCHELLVDMIYFWKNEKLYCGRHYCDSEKP
As for B1, the binding result is reported as “binds” with Zyx FL WT-mito (human); “binds” in assay [1]; “no binding” in assay [2]; “no binding” in assay [3]; “no binding” in assay [4]; “no binding” in the assay with Zyx FL MT-mito (human). For the same molecule, the binding result in assay [5] and in assay [6] was “binds” in each case.
